Measurements taken from PubChem BioAssay AID686979 (National Center for Advancing Translational Sciences (NCATS), 2013).
Screen size: about 420,000 compounds; about 50,000 (12%) were called active. This list was built around the results that the source calls inconclusive (neither active nor inactive); the mix of calls is not that of the screen. The call rests on the fitted dose curve; in most records, active means well fitted inhibition curve with a large enough effect; inconclusive means small, poorly fitted or top-dose-only effect; inactive means flat fitted curve, though single readings scatter. Potencies of inconclusive entries are left out as doubtful fits.
On the % scale 0 is the no-effect control and ±100 the full control effect; potency means the concentration at half of the fitted maximal effect; tags describe the fitted curve by direction and shape.

Assay: qHTS for Inhibitors of human tyrosyl-DNA phosphodiesterase 1 (TDP1): qHTS in cells in presence of CPT; further: nearly all actives have a fitted effect of over 55% in size
Details: chicken DT40 Tdp1-/-;hTDP1 cells + 20 nM CPT, ATP luminescence, 48 h; activity change, negative = growth inhibition: at 46.2 µM (top of the series)
Summary of the method: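 Chicken DT40 Tdp1-/- cells stably complemented with human TDP1 were seeded at 400 cells/well in medium containing 20 nM camptothecin, exposed to pin-transferred compounds, and grown at 37 °C for at least 48 hr. Viability was read as ATP luminescence.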
In the case of `Cc1ccc(S(=O)(=O)Nc2ccc(Cl)cc2O)cc1`, the Potency is reported as inconclusive [inhibitor, single point].
In the case of `Cc1cc(C(=O)COc2cccnc2[N+](=O)[O-])c(C)n1-c1ccccc1F`, the Potency is reported as active: 18.4 µM.
In the case of `O=C(COc1cccc2cccnc12)N1CCc2ccccc2C1`, the Potency is reported as inconclusive [inhibitor, single point].
With `Cc1cc(C)n(C(C)CC(=O)Nc2cccc(C(F)(F)F)c2)n1` (centres undefined) the Potency was “inactive”.
For `Nc1nc(CN2CCC(Cc3ccccc3)CC2)nc(Nc2ccccc2)n1`, the Potency was active: 18.4 µM.
In the case of `O=C(CCC(=O)N1CCN(c2ccc(F)cc2)CC1)c1ccc(F)cc1`, the Potency is reported as inconclusive [inhibitor, partial curve, poor fit].
In the case of `COc1cccc(NC(=O)N(C2CCCCC2)C(C)c2cccs2)c1` (centres undefined), the Potency is reported as active: 10 µM.
In the case of `CCOc1ccc(CN2CCc3nc(N4CCN(c5ccccc5OC)CC4)ncc3C2)cc1OC`, the Potency is reported as active: 9.2 µM.
For `CCOC(=O)C1C(=O)NC(c2ccccc2)=NC1c1ccc(OC)cc1` (centres undefined), the Potency was “inactive”.
In the case of `CC(C)(C)OC(=O)N1CCC(c2c(C(=O)NCc3cccc(Cl)c3)cnn2-c2ccc(F)cc2)CC1`, the Potency is reported as inconclusive [inhibitor, single point].
For `CCOC(=O)c1ccc(NC(=O)Cn2cnc3cc(C)c(C)cc32)cc1`, the Potency was active: 1.16 µM.
In the case of `COC(=O)C1(Cc2ccc3c(c2)CCC3)Cc2ccc3c(c2C1=O)CCC3` (centres undefined), the Potency is reported as active: 20.6 µM.
In the case of `CCOc1ccc(C(c2nnnn2Cc2ccccc2)N2CCN(C(=O)c3ccco3)CC2)cc1` (centres undefined), the Potency is reported as inconclusive [inhibitor, single point].
With `CCCCCc1ccc(-c2cn(CCc3c[nH]c4ccccc34)nn2)cc1` the Potency was inconclusive [inhibitor, single point] and the activity change, negative = growth inhibition was inconclusive: -33.1% [inhibitor].
For `COc1ccccc1C(=O)NCCC(=O)N(C)Cc1ccc(C)o1`, the Potency was “inactive”.
In the case of `Cc1ccc(CN(C)c2ccc(S(=O)(=O)N3CCCC3)cn2)cc1`, the Potency is reported as inconclusive [inhibitor, single point].
For `Cc1ccc(NC(=O)c2n[nH]c(=O)c3ccccc23)cc1S(=O)(=O)N1CCOCC1`, the Potency was inconclusive [inhibitor, single point].
With `CN(C)S(=O)(=O)c1ccc(NC(=O)CN2CCN(C(c3ccccc3)c3ccccc3)CC2)cc1` the Potency was inconclusive [inhibitor, single point].
For `C=CCn1c2c(c3ccccc31)CCC2`, the Potency was inconclusive [inhibitor, single point].
In the case of `CCOC(=O)c1cc(CC)sc1N1C(=O)CC(Sc2ccccc2C(=O)O)C1=O` (centres undefined), the Potency is reported as active: 2.91 µM.
For `OCCNc1nc2ccccc2n1-c1ncnc2sc3c(c12)CCC3`, the Potency was inconclusive [inhibitor, single point].
For `CCc1ccccc1NC(=O)CNC(=O)CSC(=S)N1CCCC1`, the Potency was “inactive”.
In the case of `Cc1ccccc1NC(=O)Cc1nc(COC(=O)C(C)(C)Oc2ccc(Cl)cc2)cs1`, the Potency is reported as inconclusive [inhibitor, single point].
For `CCCc1[nH]nc2c1C(c1ccccc1OCC)C(C#N)=C(N)O2` (centres undefined), the Potency was inconclusive [inhibitor, single point].
In the case of `O=c1ccc(-c2ccc(S(=O)(=O)Nc3ccccc3Cl)o2)n[nH]1`, the Potency is reported as “inactive”.
For `O=C(OCc1ccc(Br)cc1)c1cc([N+](=O)[O-])ccc1N1CCOCC1`, the Potency was active: 0.731 µM.
For `O=C(/C(=C/c1ccc(Cl)cc1)c1nc2ccccc2[nH]1)c1ccccc1`, the Potency was active: 13 µM.
With `Cc1cc(C)cc(OCC(=O)Nc2ccc(S(=O)(=O)Nc3ccccn3)cc2)c1` the Potency was “inactive”.
With `Cc1c(OCC(=O)Nc2cccnc2)ccc2c3c(c(=O)oc12)CCC3` the Potency was inconclusive [inhibitor, single point].
With `CCOC(=O)c1ccc(NC(=O)CC2C(=O)N(c3ccc(F)cc3)C(=O)N2Cc2cccnc2)cc1` (centres undefined) the Potency was active: 18.4 µM.
With `COc1ccc(-n2c(-c3ccc(C)cc3)cc3c2CC(C)(C)CC3=O)cc1Cl` the Potency was “inactive”.
In the case of `CCOC(=O)C1(Cc2ccccc2)CCN(Cc2nccn2CC)CC1`, the activity change, negative = growth inhibition is reported as inconclusive: -31.6% [inhibitor].
With `Cn1nccc1C(=O)NC1CCCc2c1cnn2-c1ccc(F)cc1F` (centres undefined) the Potency was active: 1.46 µM.
With `Cc1cc2cc(CN(Cc3cccs3)C(=S)NCc3ccco3)c(=O)[nH]c2cc1C` the Potency was inconclusive [inhibitor, single point].
In the case of `CCOC(=O)c1c(-c2ccc(OC)cc2)nc2nonc2c1N`, the Potency is reported as inconclusive [inhibitor, partial curve].
In the case of `CS(=O)(=O)Nc1ccc(C2=NN(C(=O)c3cccc(F)c3)C(c3cccs3)C2)cc1` (centres undefined), the Potency is reported as inconclusive [inhibitor, single point].
With `CCCn1c(=O)c(C(=O)NCc2ccccc2OC)c(O)c2ccccc21` the Potency was inconclusive [inhibitor, single point].
In the case of `CCN1CCN(c2ccc(N3CCN(S(=O)(=O)c4cc([N+](=O)[O-])ccc4C)CC3)nn2)CC1`, the Potency is reported as inconclusive [inhibitor, single point].
In the case of `COc1ccc(-c2nc(SCC(=O)NC3CCCC3)c(-c3ccc(F)cc3)[nH]2)cc1`, the Potency is reported as inconclusive [inhibitor, single point].
In the case of `CCN1CCN(C(=O)c2cc3cc(F)ccc3[nH]2)CC1`, the Potency is reported as inconclusive [inhibitor, single point].
For `CNCCNC[C@H](Cc1cccc2ccccc12)NCCc1ccccc1`, the Potency was inconclusive [inhibitor, single point].
With `CCOC(=O)C1=C(c2ccccc2)NC(=S)NC1c1ccc(C)c([N+](=O)[O-])c1` (centres undefined) the Potency was active: 23.1 µM.
With `CC(C)CNC(=O)C(=O)NN=C1CCCCCC1` the Potency was “inactive”.
For `C=CCN1N=C(c2ccc(Cl)s2)CSC1=O`, the Potency was “inactive”.
In the case of `Cc1ccc(S(=O)(=O)N2CCC(C(=O)Nc3nnc(COc4ccccc4)s3)CC2)cc1`, the Potency is reported as “inactive”.
With `CCOc1ccc(OCCC(=O)N(CC)CC(=O)Nc2ccccc2OC)cc1` the Potency was inconclusive [inhibitor, single point].
For `COc1ccccc1/C=N/NC(=S)Nc1cccnc1`, the Potency was “inactive”.
For `C[C@H](CO)N1C[C@H](C)[C@@H](CN(C)Cc2ccc(F)cc2)Oc2ncc(Br)cc2C1=O`, the Potency was “inactive”.
For `CN(CC1CCN(CCc2cccc(C(F)(F)F)c2)CC1)C(=O)c1ccccc1`, the Potency was inconclusive [inhibitor, single point].
With `CC(=O)N1CCCc2cc(S(=O)(=O)N(C)Cc3ccccc3)ccc21` the Potency was inconclusive [inhibitor, single point].
In the case of `Cc1ccc(C)c(-n2c(-c3ccc(Br)cc3)csc2=NC(=O)c2ccccc2F)c1`, the Potency is reported as active: 11.6 µM.
With `Cc1ccc(S(=O)(=O)NC2CCCC2)cc1C(N)=O` the Potency was “inactive”.
With `C=CCn1c(Oc2ccccc2F)nc2c1c(=O)n(C)c(=O)n2C` the Potency was inconclusive [inhibitor, single point].
In the case of `COc1ccc(NS(=O)(=O)c2ccc3oc(=S)[nH]c3c2)cc1`, the Potency is reported as “inactive”.
In the case of `c1ccc(CSc2nnc(Cc3ccccn3)o2)cc1`, the Potency is reported as “inactive”.
In the case of `O=C(NCCN1CCN(Cc2ccccc2)CC1)c1ccc(CS(=O)(=O)c2c(Cl)cccc2Cl)o1`, the Potency is reported as inconclusive [inhibitor, partial curve].
For `O=C(NCc1cc(C(F)(F)F)cc(C(F)(F)F)c1)C1CC(c2cccc(F)c2)=NO1` (centres undefined), the Potency was inconclusive [inhibitor, single point].
In the case of `CC(C)c1ccc(C(N)=S)cc1`, the Potency is reported as “inactive”.
With `Cn1c(=O)cc(SCC(=O)N2CCCC2)c2ccccc21` the Potency was “inactive”.
With `COc1ccc(S(=O)(=O)NCC(c2ccco2)S(=O)(=O)c2ccc(C)cc2)cc1F` (centres undefined) the Potency was inconclusive [inhibitor, single point].
For `C[C@@H]1CN([C@@H](C)CO)C(=O)c2cc(NC(=O)C3CC3)ccc2O[C@H]1CN(C)C`, the Potency was “inactive”.
With `CC1CCN(Cc2c(O)ccc3c(=O)c(Oc4ccccc4Cl)c(C(F)(F)F)oc23)CC1` the Potency was inconclusive [inhibitor, single point].
With `CS(=O)(=O)c1ccc(S(=O)CC(=O)OCc2ccccc2)c([N+](=O)[O-])c1` (centres undefined) the Potency was active: 0.231 µM.
With `Cc1ccc(C(=O)Nc2ccc3c(c2)n(C)c(=O)c(=O)n3C)cc1` the Potency was inconclusive [inhibitor, single point].
With `CCc1ccc(OC(C)C(=O)N2CCC(c3nc4ccccc4o3)CC2)cc1` (centres undefined) the Potency was inconclusive [inhibitor, partial curve].
In the case of `Cc1ccc(Nc2nc(C)cc(C)c2C#N)c(C)c1`, the Potency is reported as inconclusive [inhibitor, single point].
With `Cc1ccc2c(c1)c1c3n2CCN(C(=O)C2CC2)C3CCC1` (centres undefined) the Potency was inconclusive [inhibitor, single point].
With `CC(C)OC(=O)c1ccc(NC(=O)c2ccccc2)cc1` the Potency was inconclusive [inhibitor, single point].
For `CCOc1ccc(C(=O)N2CCn3c2nc2ccccc23)cc1`, the Potency was “inactive”.
With `Cc1ccc(NC(=O)Cn2c(=O)n(Cc3nc(-c4ccccc4)no3)c(=O)c3cc4c(cc32)OCO4)cc1F` the Potency was “inactive”.
For `Cc1ccc(S(=O)(=O)N(C)C)cc1NC(=O)Cn1c(CN2CCOCC2)nc2ccccc2c1=O`, the Potency was inconclusive [inhibitor, single point].
With `C[C@@H]1CN([C@H](C)CO)C(=O)CCCn2nncc2CO[C@H]1CN(C)Cc1cccnc1` the Potency was “inactive”.
For `O=C(Nc1ccc(Cl)cn1)C1CCN(c2ncnc3c2nc2n3CCCCC2)CC1`, the Potency was inconclusive [inhibitor, single point].
